Out of some 420,000 compounds screened, about 64,000 (15%) were called active. Inconclusive means that the source gave no clear call. Such entries were picked first, then a sample of the others. The call rests on the fitted dose curve; in most records, active means well fitted inhibition curve with a large enough effect; inconclusive means small, poorly fitted or top-dose-only effect; inactive means flat fitted curve, though single readings scatter. Potencies of inconclusive entries are left out as doubtful fits.
Assay: qHTS for Inhibitors of human tyrosyl-DNA phosphodiesterase 1 (TDP1): qHTS in cells in absence of CPT; further: nearly all actives have a fitted effect of over 55% in size
Conditions: DT40 Tdp1-/- hTDP1 cells, no CPT, ATP luminescence, 48 h; activity change, negative = growth inhibition: at 46.2 µM (top of the series)
In short: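 Growth kinetics read by CellTiter-Glo luminescence after ≥48 hr at 37 °C. Cells: DT40 Tdp1-/- stably carrying human TDP1, 400 per well, compound exposure in the absence of CPT (DMSO vehicle).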
On the % scale 0 is the no-effect control and ±100 the full control effect; potency means the concentration at half of the fitted maximal effect; tags describe the fitted curve by direction and shape.

Row | SMILES | Potency | activity change, negative = growth inhibition
1 | O=C(Nc1ccc(O)cc1)C1CCCN1S(=O)(=O)c1ccc(F)cc1 (centres undefined) | inconclusive [inhibitor, partial curve] | –
2 | COc1cccc(NS(=O)(=O)c2cc3c(cc2C)NC(=O)CO3)c1 | inconclusive [inhibitor, partial curve] | –
3 | Cc1cccc2cc(CN(Cc3ccccc3)C(=S)NCCCN(C)C)c(=O)[nH]c12 | inconclusive [inhibitor, single point] | –
4 | COc1ccc(Cl)cc1C(=O)NNC(=O)COC(=O)CC(NC(C)=O)c1ccccc1 (centres undefined) | inactive | –
5 | Cc1ccc(C2(CC(=O)N3CCCC3)CCOC(C(C)C)C2)cc1 (centres undefined) | inconclusive [inhibitor, single point] | –
6 | Cc1nn(-c2ccc(C(=O)N3CCN(S(=O)(=O)c4ccccc4C(F)(F)F)CC3)cc2)c(C)c1Cl | inconclusive [inhibitor, partial curve] | –
7 | CCC(C)(C)NC(=O)CN(CC1CCCO1)C(=O)CNS(=O)(=O)c1ccccc1 (centres undefined) | inactive | –
8 | CCc1nc(N2CCN(C(=O)c3ccco3)CC2)c2c3c(sc2n1)CCCC3 | inconclusive [inhibitor, single point] | –
9 | CCOC(=O)C1CCN(c2ncnc3c2c(-c2ccccc2)cn3-c2ccc(C)c(Cl)c2)CC1 | inactive | –
10 | CC1CC(C)CN(C(=O)CSc2nnc(-c3ccc(F)cc3)o2)C1 (centres undefined) | inconclusive [inhibitor, partial curve] | –
11 | CC(C)n1c(=NC(=O)c2ccco2)c(C#N)cc2c(=O)n3ccccc3cc21 | inconclusive [inhibitor, single point] | –
12 | CC1(C)Cc2[nH]c(=O)c(C#N)cc2CS1 | – | inconclusive: -26% [inhibitor]
13 | CCc1cc(=O)[nH]c(SCc2nc(-c3ccccc3C)no2)n1 | inconclusive [inhibitor, single point] | –
14 | O=c1[nH]c(SCc2cccc(Cl)c2)nc2c1CCCC2 | inconclusive [inhibitor, single point] | –
15 | Cn1cccc1/C=C1\SC(=Nc2cccc(O)c2)NC1=O | active: 20.6 µM | –
16 | Cc1noc(C)c1COc1ccc(C(=O)NCCOc2ccccc2)cc1 | inconclusive [inhibitor, single point] | –
17 | COc1ccc(-c2cc(C(F)(F)F)nc(SCC(=O)Nc3ccc(C(C)=O)cc3)n2)cc1 | inconclusive [inhibitor, single point] | –
18 | CN(CC(=O)Nc1ncn[nH]1)S(=O)(=O)c1ccc(Br)cc1 | inactive | –
19 | O=C(NCCc1csc(-c2ccc(F)cc2)n1)C(=O)Nc1ccc(Cl)cc1 | inconclusive [inhibitor, single point] | –
